PubChem BioAssay AID485281 (National Center for Advancing Translational Sciences (NCATS), 2010)
The campaign covered roughly 350,000 compounds. About 260 (0.074%) were called active. The inconclusive results got no clear call from the source; some entries with a clear call stand among them for comparison. Calls come from the whole dose curve; as a rule, active = well fitted inhibition curve with a large enough effect; inconclusive = small, poorly fitted or top-dose-only effect; inactive = no such curve, though single readings can be large or run the other way. Where the call is inconclusive, the potency comes from a doubtful curve fit.

Molecular target: Ferritin light chain (Equus caballus) (UniProt P02791)
Assay: qHTS Assay for Identification of Novel General Anesthetics; note: nearly all actives have a fitted effect of over 20% in size
Settings: apoferritin/1-aminoanthracene competitive binding, fluorescence; series mostly up to 77.5 µM
How it was run: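 Horse-spleen apoferritin (10 uM) was mixed with 50% saturated 1-aminoanthracene in PBS, exposed to compounds for 10 min at room temperature, and read for fluorescence (ex 380 nm, em 535 nm). Competitive displacement was fitted with a four-parameter Hill equation.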
Potency is the fitted concentration of half-maximal effect; tags give direction and shape of the fitted curve.

Chain of UniProt P02791 (P02791 whole entry, looked up): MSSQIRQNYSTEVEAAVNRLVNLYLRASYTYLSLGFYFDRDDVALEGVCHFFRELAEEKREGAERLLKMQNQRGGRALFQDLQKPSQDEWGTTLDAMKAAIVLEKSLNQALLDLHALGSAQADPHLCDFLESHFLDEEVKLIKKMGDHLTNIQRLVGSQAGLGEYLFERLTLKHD

Structure (SMILES)	Potency
CCc1ccc(CNC(=O)C2CCCN(c3nnc(C)c4c(C)n(-c5ccccc5)nc34)C2)cc1 (stereo not given)	inconclusive: 28.2 µM [inhibitor, single point]
O=C(NCc1ccc2c(c1)OCO2)c1sccc1Br	inconclusive: 44.7 µM [inhibitor, single point]
CC(C)(C)c1ccc(NC(=O)CC2(C(F)(F)F)OCCO2)cc1	inconclusive: 8.91 µM [inhibitor, partial curve]
O=C(Oc1ccc2c(c1)OCO2)c1cccs1	inconclusive: 35.5 µM [inhibitor, partial curve]
Cc1cccc(-c2noc(CSc3ccccc3)n2)c1	inconclusive: 14.1 µM [inhibitor, partial curve]
S=C(NCC1CCCO1)c1ccc(Br)cc1 (stereo not given)	inactive
O=S(=O)(c1ccc2ccccc2c1)N1CCN=C1SCc1cccnc1	inactive
Cc1cc2n(n1)C(c1sccc1C)Nc1c(C)cccc1-2 (stereo not given)	inconclusive: 14.1 µM [inhibitor, partial curve]
O=C(N/N=C/c1cn[nH]c1-c1ccc(Cl)cc1)c1ccc([N+](=O)[O-])cc1	inconclusive: 12.6 µM [inhibitor, partial curve]
Cc1cc(C)cc(NC(=O)Nc2ccc(N3CCCCC3)cc2)c1	inconclusive: 31.6 µM [inhibitor, partial curve]
Cc1ccc(C(=O)CSc2nc(C(C)C)nc3ccccc23)cc1	inconclusive: 31.6 µM [inhibitor, partial curve]
Cc1cccc(C(=O)Nc2cc(NC(=O)c3cccs3)ccc2C)c1	inconclusive: 22.4 µM [inhibitor, partial curve]
Cc1ccc(CNC(=O)CCn2cc(-c3ccc(C)cc3)nc2-c2ccncc2)cc1	inconclusive: 35.5 µM [inhibitor, single point]
CCN(CC)C(=O)Cn1cc(C(=O)C(=O)NCC2COc3ccccc3O2)c2ccccc21 (stereo not given)	inconclusive: 44.7 µM [inhibitor, single point]
Cc1cccc(OCC(=O)N2CCc3ccccc3C2)c1	inconclusive: 50.1 µM [inhibitor, single point]
O=C(CCCc1ccccc1)NC12CC3CC(CC(C3)C1)C2	inconclusive: 12.6 µM [inhibitor, partial curve]
Cc1ccn2c(=O)nc(SCc3cccc(C(F)(F)F)c3)nc2c1	inconclusive: 39.8 µM [inhibitor, single point]
CCOc1cc(NC(=O)CCl)c(OCC)cc1NC(=O)CCl	inactive
Cc1cccc(CCNC(=O)c2cc(S(=O)(=O)N3CCCCC3)c[nH]2)c1	inconclusive: 17.8 µM [inhibitor, partial curve]
O=C1CC(=C(c2ccccc2)c2ccccc2)C(=O)N1CCN1CCN(c2cccc(Cl)c2)CC1	inconclusive: 17.8 µM [inhibitor, partial curve]
CCOC(=O)c1[nH]c(=O)[nH]c1CSc1nc(C)cc(C)n1	inactive
CCN1CCN(Cc2c(O)ccc3oc(C)c(C(=O)Nc4cccc(C(F)(F)F)c4)c23)CC1	inactive

Structure (SMILES)	Potency
CCOc1cccc2sc(N(CCCN(C)C)C(=O)c3ccc(S(=O)(=O)N(CC)Cc4ccccc4)cc3)nc12	inconclusive: 35.5 µM [inhibitor, partial curve]
O=C(NCc1ccccc1)c1noc2c1CCCCC2	inconclusive: 39.8 µM [inhibitor, partial curve]
COc1cccc(NCc2ccc([N+](=O)[O-])s2)c1	inconclusive: 17.8 µM [inhibitor, partial curve, poor fit]
CCCCOc1ccc(C(=O)N(Cc2ccccc2)C2CCS(=O)(=O)C2)cc1 (stereo not given)	inconclusive: 35.5 µM [inhibitor, partial curve]
CC(=O)c1c(Cl)nc2cccc3c2c1-c1ccccc1C3=O	inconclusive: 6.31 µM [inhibitor, single point]
C/C(=N\OCC(=O)Nc1ccc2c(c1)OCCO2)c1ccc2c(c1)OCCO2	inconclusive: 25.1 µM [inhibitor, partial curve]
c1ccc(CN2CCN(c3nc(-c4ccccc4)nc(-n4ccnc4)n3)CC2)cc1	inconclusive: 3.16 µM [inhibitor, partial curve]
CCCCCCCCCCCCCCCCCCc1ccc(C(=O)/C=C/C(=O)O)cc1	inactive
Cc1ccc(S(=O)(=O)NC(=O)c2cc(C)n(-c3ccc(N(C)C)cc3)c2C)cc1	inactive
O=C(CNC(=O)c1ccccc1)OCC(=O)c1ccccc1Cl	inconclusive: 31.6 µM [inhibitor, partial curve]
Cc1cc(C)c2c(c1)c(C)cc1nnc(SCC(=O)c3ccccc3)n12	inactive
Cc1cc(O)cc(O)c1C(=O)Cc1cnn(-c2ccccc2)c1	inconclusive: 31.6 µM [inhibitor, partial curve]
COc1ccc(C2/C=C\CN(CC(C)C)CC(=O)N2Cc2ccc(F)cc2)cc1 (stereo not given)	inconclusive: 28.2 µM [inhibitor, partial curve]
COCCC(=O)NC12CC3CC(CC(C3)C1)C2	inconclusive: 31.6 µM [inhibitor, partial curve]
O=C(c1cc(COc2c(F)cccc2F)on1)N1CCC(c2ccccc2F)C1 (stereo not given)	inconclusive: 6.31 µM [inhibitor, single point]
CCCCOC(=S)NC(=O)c1sc2ccccc2c1Cl	inconclusive: 39.8 µM [inhibitor, single point]
COc1ccc(NC(=O)Cn2c(=O)oc3cc(S(=O)(=O)N4CCCCCC4)ccc32)cc1OC	inconclusive: 12.6 µM [inhibitor, partial curve]
COc1ccc(-c2noc(CCC(=O)Nc3cccc(C)c3)n2)cc1	inconclusive: 28.2 µM [inhibitor, partial curve]
O=C1C2C3C=CC(C4CC34)C2C(=O)N1Cc1ccccc1 (stereo not given)	inconclusive: 10 µM [inhibitor, full curve]
Cc1ccc2onc(CC(=O)N3CCN(c4cccc(Cl)c4)CC3)c2c1	inactive
CSC1=NC(=O)/C(=C\c2cccc3ccccc23)S1	inconclusive: 31.6 µM [inhibitor, partial curve]
Cc1cc(NC(=O)CCC(=O)N(Cc2ccccc2)C(C(=O)NC2CCCC2)c2ccc(C)o2)no1 (stereo not given)	inconclusive: 31.6 µM [inhibitor, single point]

Structure (SMILES)	Potency
Cc1cc(=S)nc(-c2ccccn2)[nH]1	inactive
CCOc1ccc(/C=C(\C#N)C(=O)c2c(C)[nH]c3ccccc23)cc1OC	inconclusive: 28.2 µM [inhibitor, single point]
O=C(Nc1nccs1)C1CC2CCC1C2 (stereo not given)	inconclusive: 12.6 µM [inhibitor, partial curve]
Cc1cc(NC(=O)CSc2nnc(C3COc4ccccc4O3)o2)no1 (stereo not given)	inconclusive: 39.8 µM [inhibitor, partial curve]
C/C(CCC(C)C)=N\Nc1cc(C)c2ccccc2n1	inconclusive: 14.1 µM [inhibitor, full curve]
O=C1C2C3C=CC(C3)C2C(=O)N1Nc1ccc([N+](=O)[O-])cc1[N+](=O)[O-] (stereo not given)	inconclusive: 20 µM [inhibitor, partial curve]
Cc1cccc(OC(=O)c2sc3ncn(C)c(=O)c3c2C)c1	inconclusive: 31.6 µM [inhibitor, partial curve]
Cc1ccc(O)c(NC(=O)C2=CC(c3ccco3)=NS(=O)(=O)N2C)c1	inconclusive: 28.2 µM [inhibitor, partial curve]
O=C(O)c1ccccc1C(=O)NNc1ccc(F)cc1	inconclusive: 56.2 µM [inhibitor, single point]
N#CC(C#N)=C(Nc1ccc(F)cc1)SCc1cccc(Br)c1	inactive
FC(F)(F)c1cnc(Sc2nnc(-c3cccs3)n2CC2CCCO2)c(Cl)c1 (stereo not given)	inconclusive: 39.8 µM [inhibitor, single point]
COc1cccc(-c2nc(CS(=O)CC(=O)NC(C)CCc3ccccc3)c(C)o2)c1 (stereo not given)	inconclusive: 20 µM [inhibitor, partial curve]
CCOC(=O)C1=C(CSc2nc3ccccc3s2)NC(=O)NC1c1ccc(OC)cc1 (stereo not given)	inconclusive: 14.1 µM [inhibitor, partial curve]
O=C(Cc1ccccc1F)Nc1ccc2c(c1)CCC2	inconclusive: 44.7 µM [inhibitor, single point]
O=C1CC(Sc2nnc(-c3ccccc3O)o2)C(=O)N1c1ccccc1 (stereo not given)	inconclusive: 39.8 µM [inhibitor, partial curve]
COc1ccc(N(C)S(=O)(=O)c2cccc(C(=O)Nc3ccc(-n4cnnn4)cc3)c2)cc1	inconclusive: 5.01 µM [inhibitor, full curve, poor fit]
CCO[C@@H]1OC(C(=O)Nc2ccccc2)=C[C@H](c2coc3ccccc3c2=O)[C@H]1CCCO	inconclusive: 17.8 µM [inhibitor, partial curve]
COc1ccccc1C(CCNCc1ccc(N(C)C)cc1)c1ccc(OC(C)C)cc1 (stereo not given)	inconclusive: 17.8 µM [inhibitor, partial curve]
c1ccc(C2=Nc3ccccc3OC2)cc1	inconclusive: 35.5 µM [inhibitor, partial curve]
CCOC(=O)c1sc(NC(=O)c2c(-c3ccccc3)c(-c3ccccc3)nn(C)c2=O)nc1C	inconclusive: 35.5 µM [inhibitor, partial curve]
Nc1nc(CN2CCN(c3ccccc3F)CC2)nc(Nc2ccccc2)n1	inconclusive: 39.8 µM [inhibitor, single point]
